Source: the supplement of paper PMC4967469
Lines with a small IC50 respond at low doses; where the fit passes the top or lowest dose, that dose stands as a limit. AUC, from the same fit, is the share of area under the viability curve across the 256-fold dose range: 1 means no effect, lower means more sensitive. For part of these data: Where the top dose is marked as inferred, it is not printed in the source and was worked back from the curve model. For part of these data: Drugs with an entry number were screened twice under separate entries, and the two screens often disagree.

Key:
Assay in all cases: Viability of human cancer cell lines after 72 h of drug (GDSC screen)
Thapsigargin = compound: C/C=C(/C)C(=O)O[C@H]1C(C)=C2[C@H]([C@@H]1OC(=O)CCCCCCC)[C@@](C)(OC(C)=O)C[C@H](OC(=O)CCC)[C@@]1(O)[C@H]2OC(=O)[C@@]1(C)O [Thapsigargin]; details: top dose 0.512 µM; top dose inferred
Procedure: (§1)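 Human cancer cell lines in 384-well plates, medium with 10% serum, drug for 72 h over a 256-fold dose range (nine 2-fold or five 4-fold steps up to the top dose). Adherent lines were fixed and stained with the nucleic acid dye Syto60, suspension lines read with resazurin; signal relative to control wells, capped at 0 and 100%. One two-parameter sigmoid per drug and line, fitted in a mixed model over all curves with the slope shared within a line.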

QL-X-138 = compound: C=CC(=O)Nc1cc(-n2c(=O)ccc3cnc4ccc(-c5cn[nH]c5)cc4c32)ccc1C [QL-X-138]; details: top dose 10.24 µM; top dose inferred
Procedure: as §1

GSK269962A = compound: CCn1c(-c2nonc2N)nc2cnc(Oc3cccc(NC(=O)c4ccc(OCCN5CCOCC5)cc4)c3)cc21 [GSK269962A]; details: top dose 5 µM; screen: GDSC drug entry 1192; top dose inferred
Procedure: as §1

MPS-1-IN-1 = compound: COc1cc(N2CCC(O)CC2)ccc1Nc1cc(Nc2ccccc2S(=O)(=O)C(C)C)c2cc[nH]c2n1 [MPS-1-IN-1]; details: top dose 20 µM; top dose inferred
Procedure: as §1

(5Z)-7-Oxozeaenol = compound: COc1cc(O)c2c(c1)/C=C/C[C@H](O)[C@H](O)C(=O)/C=C\C[C@H](C)OC2=O [(5Z)-7-Oxozeaenol]; details: top dose 10 µM; top dose inferred
Procedure: as §1

CP466722 = compound: COc1cc2ncnc(-n3nc(-c4ccccn4)nc3N)c2cc1OC [CP466722]; details: top dose 16 µM; top dose inferred
Procedure: as §1

Zibotentan = compound: COc1nc(C)cnc1NS(=O)(=O)c1cccnc1-c1ccc(-c2nnco2)cc1 [Zibotentan]; details: top dose 20 µM; top dose inferred
Procedure: as §1

ABT-888 = compound: C[C@]1(c2nc3c(C(N)=O)cccc3[nH]2)CCCN1 [ABT-888]; details: top dose 5 µM; top dose inferred
Procedure: as §1

ABT-869 = compound: Cc1ccc(F)c(NC(=O)Nc2ccc(-c3cccc4[nH]nc(N)c34)cc2)c1 [ABT-869]; details: top dose 1.024 µM; top dose inferred
Procedure: as §1

CHIR-99021 = compound: Cc1cnc(-c2cnc(NCCNc3ccc(C#N)cn3)nc2-c2ccc(Cl)cc2Cl)[nH]1 [CHIR-99021]
Procedure: as §1

KU-55933 = compound: O=c1cc(-c2cccc3c2Sc2ccccc2S3)oc(N2CCOCC2)c1 [KU-55933]; details: top dose 10 µM
Procedure: as §1

[1] = top dose 2.56 µM, screen: GDSC drug entry 154
[2] = top dose 10 µM, screen: GDSC drug entry 1241, top dose inferred

Cell Line	AUC (Thapsigargin)	IC50 (Thapsigargin)	AUC (QL-X-138)	IC50 (QL-X-138)	AUC (GSK269962A)	IC50 (GSK269962A)	AUC (MPS-1-IN-1)	IC50 (MPS-1-IN-1)	AUC ((5Z)-7-Oxozeaenol)	IC50 ((5Z)-7-Oxozeaenol)	AUC (CP466722)	IC50 (CP466722)	AUC (Zibotentan)	IC50 (Zibotentan)	AUC (ABT-888)	IC50 (ABT-888)	AUC (ABT-869)	IC50 (ABT-869)	AUC (CHIR-99021; [1])	IC50 (CHIR-99021; [1])	AUC (CHIR-99021; [2])	IC50 (CHIR-99021; [2])	AUC (KU-55933)	IC50 (KU-55933)
MHH-ES-1 (Ewing sarcoma, adherent)	0.196	0.00407 µM	0.502	0.65 µM	0.782	2.06 µM	0.695	4.38 µM	0.731	2.82 µM	0.658	2.72 µM	0.983	> 20 µM	0.929	> 5 µM	0.985	> 1.02 µM	0.727	0.699 µM	0.984	> 10 µM	0.945	> 10 µM
MOG-G-UVW (glioma, adherent)	0.267	0.00707 µM	0.736	2.96 µM	0.746	1.55 µM	0.948	> 20 µM	0.557	0.892 µM	0.762	5.59 µM	0.987	> 20 µM	0.976	> 5 µM	0.986	> 1.02 µM	0.948	> 2.56 µM	0.9	> 10 µM	0.92	> 10 µM
NCI-H460 (large cell lung carcinoma, adherent)	0.244	0.0064 µM	0.987	> 10.2 µM	0.878	4.24 µM	0.923	> 20 µM	0.848	6.36 µM	0.989	> 16 µM	0.99	> 20 µM	0.989	> 5 µM	0.989	> 1.02 µM	0.986	> 2.56 µM	0.952	> 10 µM	0.983	> 10 µM
NCI-H1437 (lung adenocarcinoma, adherent)	0.269	0.00681 µM	0.614	1.34 µM	0.985	> 5 µM	0.911	> 20 µM	0.747	3.3 µM	0.772	6.42 µM	0.986	> 20 µM	0.983	> 5 µM	0.984	> 1.02 µM	0.982	> 2.56 µM	0.968	> 10 µM	0.927	> 10 µM
NCI-H2023 (lung adenocarcinoma, adherent)	0.856	> 0.512 µM	0.932	> 10.2 µM	0.909	> 5 µM	0.979	> 20 µM	0.876	> 10 µM	0.917	> 16 µM	0.981	> 20 µM	0.928	> 5 µM	0.981	> 1.02 µM	0.982	> 2.56 µM	0.958	> 10 µM	0.925	> 10 µM
